From the BET-seq Pho4 binding data (Le et al. 2018)
The other results are listed elsewhere or left out. These are noisy estimates, calculated here from bound and input reads.

Each sequence was assayed against T1, Pho4 (S. cerevisiae) (UniProt P07270) (assay: relative binding free energy (BET-seq); higher = weaker binding). Details: reference: library average.
T1 sequence: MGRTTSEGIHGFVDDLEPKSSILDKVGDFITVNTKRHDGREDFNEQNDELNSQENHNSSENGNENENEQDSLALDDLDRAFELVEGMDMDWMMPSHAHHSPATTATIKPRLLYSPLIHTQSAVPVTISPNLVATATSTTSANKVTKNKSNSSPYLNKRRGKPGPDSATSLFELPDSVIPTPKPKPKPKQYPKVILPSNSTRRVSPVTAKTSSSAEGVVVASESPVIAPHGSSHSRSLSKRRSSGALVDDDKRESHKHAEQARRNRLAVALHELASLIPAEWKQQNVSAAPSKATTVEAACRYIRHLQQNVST

Sequence | relative binding free energy [kcal/mol]
TGAAACACGTGGTTGA | -0.12
TAGGGCACGTGCTGTG | -0.21
TTCGGCACGTGGACGG | 0.01
TGTGTCACGTGTGTGT | 0.08
TGGTTCACGTGAGGGT | 0.43
TAGAACACGTGTTGGA | 0.1
GGTTACACGTGTCTGG | -0.09
AGGCGCACGTGTTGAG | -0.02
TGCGTCACGTGTGGGA | 0.06
AAAGTCACGTGTGTGA | 0.08
ACGTTCACGTGGGCAG | 0.13
TGTTCCACGTGTGTTA | 0.11
AGGTTCACGTGCAAGG | 0.34
GTGCGCACGTGGGAAA | -0.07
GAGTACACGTGTGGGC | 0.27
ATTAGCACGTGGCCGT | -0.06
AATTGCACGTGGTGAG | -0.06
TTAGGCACGTGTTGGT | -0.07
CGGAGCACGTGGGTGC | -0.3
TCTATCACGTGGGATG | 0
GATGGCACGTGGTAAT | -0.01
GGTGTCACGTGATGCT | 0.28
GGGGCCACGTGAATTG | 0.18
ACAGTCACGTGGTGTT | -0.08
TGGTTCACGTGAGGCC | 0.5
TCTAACACGTGGGGAG | -0.1

Sequence | relative binding free energy [kcal/mol]
AATGCCACGTGTTTGG | -0.03
GTCATCACGTGGGTAA | 0.2
GGCGGCACGTGAGGGT | 0.17
GATAACACGTGGTGTA | -0.26
TTGATCACGTGAATTG | 0.37
TAATGCACGTGGATTG | -0.01
AGTGCCACGTGGCAGG | -0.27
ATGAGCACGTGTGTTC | -0.04
TAGTTCACGTGTTCTA | 0.27
GAATTCACGTGGTCGT | 0.3
TGCGCCACGTGTGTGT | -0.13
AGGGGCACGTGGTTCG | -0.14
AACGGCACGTGTAGTG | 0.09
TAATACACGTGTTAGG | 0.03
CCAGTCACGTGGGGTA | 0.03
GCAGGCACGTGGTATT | 0.02
GGATTCACGTGAGGAG | 0.46
GATTGCACGTGCGTTT | 0.1
GTTGCCACGTGCTGTG | -0.12
TACGGCACGTGGTTAA | -0.06
ATGGACACGTGTCTAG | 0.15
TTTTACACGTGGTGAC | 0.17
GGAATCACGTGGTGGG | 0.04
TTGTTCACGTGCGTCA | 0.14
GGGGTCACGTGGTGAC | 0.07
GATGGCACGTGAGTAA | 0.16

Sequence | relative binding free energy [kcal/mol]
GCATTCACGTGAATGG | 0.4
CGTTGCACGTGATATG | -0.06
GGTGTCACGTGTTAAA | 0.3
AGTAGCACGTGGGGGC | -0.33
TATAACACGTGTTGTC | 0
GGACTCACGTGGGGTG | 0.18
TGAGGCACGTGCCGGC | -0.02
TAGTGCACGTGGCTGC | 0.04
GAAGTCACGTGGGGTG | 0
GTTTCCACGTGGCGGG | 0.12
ATGTACACGTGGTTCT | -0.1
TAAGTCACGTGTTGGG | -0.01
GCGTGCACGTGGAAGT | -0.01
AGGTCCACGTGGCGGA | 0.03
GCGTCCACGTGAGGGG | 0.17
TTTCTCACGTGAGTGA | 0.29
AGTCGCACGTGGGGTC | -0.15
GCAGGCACGTGGGTGT | -0.21
CGATGCACGTGAGTTG | 0.2
TTACTCACGTGTATGA | 0.21
AACAGCACGTGATGGG | 0.14
TCAATCACGTGGATTT | 0.22
TGGTGCACGTGGGAGA | -0.17
TAAGACACGTGGTTAG | 0.02
GGTCTCACGTGTTATA | 0.22
CTTGACACGTGGGGGA | -0.15

Sequence | relative binding free energy [kcal/mol]
TGCTTCACGTGAGGTC | 0.38
GTGAGCACGTGATAGG | -0.03
ATGGGCACGTGCCTGG | -0.29
AGTAGCACGTGTAGCT | -0.1
AACGACACGTGGGTTT | 0.04
TAGGTCACGTGTACGT | 0.15
GGGTTCACGTGCTGAG | 0.28
TTATTCACGTGGTTCA | 0.08
TGTCGCACGTGTGGGA | 0.01
TTTGTCACGTGTGTTG | 0.2
AGGTGCACGTGTCATG | -0.09
GGTCCCACGTGTTGGT | -0.02
GTTGGCACGTGAGGGA | 0.21
GGAGACACGTGACGGT | 0.09
ATTTGCACGTGATTTC | 0.18
TAGGTCACGTGGTGAC | 0.04
TTCTACACGTGGGTAA | 0.12
AGTTTCACGTGCGTGT | 0.17
AGTTCCACGTGATGGT | 0.22
TTAGACACGTGGCAGT | -0.05
GGTTCCACGTGTTTTA | 0.14
GCGGACACGTGTGGGG | 0.23
GATAACACGTGTTTTG | -0.12
TTGTACACGTGTTCGA | -0.1
TTTTACACGTGGCGCG | 0.12
TAAGTCACGTGTAGTG | -0.06

Sequence | relative binding free energy [kcal/mol]
ATAGTCACGTGGGTTA | -0.03
TCGATCACGTGAGTGT | 0.35
GTCAGCACGTGTATGG | -0.03
GGGGTCACGTGGCAGG | 0.1
GGTCGCACGTGGTACG | -0.08
TATCTCACGTGGTGTA | 0.15
AGGGGCACGTGTATTC | 0
TGTGCCACGTGGTAAA | 0.08
AACGGCACGTGGGGCA | -0.11
TAGGACACGTGGATGG | -0.01
GGGTACACGTGAGGGA | 0.3
ATGTGCACGTGGGTGA | -0.08
TGAAGCACGTGAGGGG | 0.23
AGGGGCACGTGGTACG | -0.16
GTTAGCACGTGAGGGC | 0.26
AGAAGCACGTGGTGTA | -0.24
TCGCGCACGTGGTGTT | -0.14
CAGTGCACGTGTGATT | 0.03
GTAGGCACGTGCGGCG | -0.13
TTGTTCACGTGGGTAA | 0.14
CGTGCCACGTGGGTTA | -0.25
TTGGACACGTGTTTGA | 0.04
CTAGTCACGTGGGATG | -0.12
CGGATCACGTGTGTAT | 0.21
GTCGGCACGTGAAGTT | 0.3
AGCGGCACGTGCGAGT | -0.07

Sequence | relative binding free energy [kcal/mol]
GGTCGCACGTGTTGTC | 0.04
GTCGTCACGTGATTAT | 0.32
CAATGCACGTGGTGAG | -0.12
GGTCGCACGTGTAGTA | -0.06
GTTAGCACGTGTGAAT | 0.06
GTAGCCACGTGGTGTG | -0.27
TTACGCACGTGGGCTG | -0.18
TTCTACACGTGGAGGT | 0.04
TCAGGCACGTGGAGGT | -0.22
TGTCTCACGTGAGGCT | 0.25
AGGACCACGTGTTTGG | -0.07
GTGACCACGTGGTTGG | 0.01
GTTATCACGTGGATAG | 0.15
GAGGACACGTGTAGGT | 0.02
GACTGCACGTGGTAGG | -0.02
TTGGGCACGTGTAAAG | 0.16
GTACGCACGTGTATTG | 0.04
AGATACACGTGTGTAG | 0.04
GCCGTCACGTGGGTTT | -0.01
GAGTTCACGTGGTGTA | 0.18
TGGAGCACGTGTGCTT | -0.09
CGTTGCACGTGGCGTG | 0.03
GGGGTCACGTGGTCTC | 0.16
ATGTGCACGTGCCGGG | -0.01
AGCTGCACGTGGTAGC | 0.11
TTGGTCACGTGGTGAG | 0.13

Sequence | relative binding free energy [kcal/mol]
GTAGGCACGTGTTATG | -0.12
TGAAACACGTGGTTAT | -0.02
CGTTACACGTGGGGAA | 0.02
TTGGGCACGTGAGTTC | 0.21
AAGTCCACGTGGCGGG | 0.06
AAGGGCACGTGGGCGC | -0.22
TCGTGCACGTGGTGCA | -0.12
ATGAACACGTGTGTTG | -0.04
GTACGCACGTGTGTAT | 0.08
TGTGGCACGTGTCAGC | -0.1
TTCGACACGTGGATTG | 0.13
CTTATCACGTGTATGG | 0.05
TGAAGCACGTGGTCTA | -0.07
CGCTGCACGTGAGGTT | 0.18
GGCGACACGTGTAGTG | 0.13
GTGAACACGTGGTGGC | 0.06
TGCAGCACGTGGAAGG | -0.13
GGATTCACGTGTGCCG | 0.37
TTTGTCACGTGGGATG | -0.05
TCGTACACGTGGGTGC | -0.08
ATGGGCACGTGCATTG | -0.18
GTAGTCACGTGAGTTT | 0.3
GATGTCACGTGGCCTG | 0.05
TTACACACGTGGTGGG | 0.12
ATCGTCACGTGTGGAG | 0.23
GGGGGCACGTGCTTAG | -0.01

Sequence | relative binding free energy [kcal/mol]
TATAACACGTGGTCGT | -0.21
GAGGGCACGTGAAGAA | 0.21
CGTAGCACGTGGTGCA | -0.11
GTTCACACGTGAATGT | 0.32
TTTGTCACGTGAGGAG | 0.35
CTCGGCACGTGGGGTG | -0.32
GTCTTCACGTGTTATG | 0.2
GTCTACACGTGGGTGA | 0.17
GGTTACACGTGGAGTC | 0.24
GTTGTCACGTGGACTT | 0.08
TTATACACGTGAGGGT | 0.23
ATTAGCACGTGACGTG | 0.08
ATCTTCACGTGTATGT | 0.28
GGGGGCACGTGACGGG | 0.09
AATAGCACGTGTATGG | -0.12
TTGTACACGTGTTTGC | -0.05
GAGAGCACGTGGGGCT | -0.21
GTGAACACGTGTTTGG | 0.06
ATATTCACGTGAGGCT | 0.24
ATTTACACGTGTTGTT | 0.01
GTACGCACGTGAGGTT | 0.2
TTGGTCACGTGGCCGT | -0.03
GTCTGCACGTGGGGCT | -0.03
GTCCTCACGTGTGGTT | 0.33
TTGGCCACGTGAAAGT | 0.18
TGGGTCACGTGTGATG | 0.19

Sequence | relative binding free energy [kcal/mol]
TAGGCCACGTGGGTAG | -0.15
GGGGACACGTGTGGTG | 0.1
GTTGACACGTGTAGCG | 0.16
AATATCACGTGAGGGG | 0.26
ATTATCACGTGGGGGG | 0.02
TGATTCACGTGTGGCA | 0.13
CGTTTCACGTGTGGCA | 0.22
AGGGGCACGTGTACAG | -0.29
AAGTTCACGTGGGAGA | 0.1
CGGATCACGTGTTAGG | 0.06
CAGGGCACGTGACGGG | 0.06
TTGATCACGTGTTCAG | 0.1
TACTGCACGTGGTGGT | -0.05
GTTGACACGTGTATTT | 0.09
TGTGGCACGTGTTGAT | -0.05
CGGGTCACGTGTTGAT | 0.09
GTGACCACGTGTCGGG | 0.06
TGACGCACGTGGATGT | -0.16
ATGGCCACGTGGCGTA | -0.15
CTTTTCACGTGATTAG | 0.28
GGTGTCACGTGGTTCC | 0.15
TCGGACACGTGGTGCG | -0.12
